# Data from article PMC4336329 (PLoS ONE, 2015).
# Out of some 310,000 compounds screened, about 2,200 (0.71%) showed an effect of 50% or more. The effect is printed as a negative number. Some of the results follow.
# Biological target: human ether-à-go-go-related gene (hERG) potassium channel (human, UniProt Q12809)
# Test: primary screen, population patch clamp on CHO cells stably expressing hERG
# human ether-à-go-go-related gene (hERG) potassium channel, sequence (Q12809 whole entry, looked up): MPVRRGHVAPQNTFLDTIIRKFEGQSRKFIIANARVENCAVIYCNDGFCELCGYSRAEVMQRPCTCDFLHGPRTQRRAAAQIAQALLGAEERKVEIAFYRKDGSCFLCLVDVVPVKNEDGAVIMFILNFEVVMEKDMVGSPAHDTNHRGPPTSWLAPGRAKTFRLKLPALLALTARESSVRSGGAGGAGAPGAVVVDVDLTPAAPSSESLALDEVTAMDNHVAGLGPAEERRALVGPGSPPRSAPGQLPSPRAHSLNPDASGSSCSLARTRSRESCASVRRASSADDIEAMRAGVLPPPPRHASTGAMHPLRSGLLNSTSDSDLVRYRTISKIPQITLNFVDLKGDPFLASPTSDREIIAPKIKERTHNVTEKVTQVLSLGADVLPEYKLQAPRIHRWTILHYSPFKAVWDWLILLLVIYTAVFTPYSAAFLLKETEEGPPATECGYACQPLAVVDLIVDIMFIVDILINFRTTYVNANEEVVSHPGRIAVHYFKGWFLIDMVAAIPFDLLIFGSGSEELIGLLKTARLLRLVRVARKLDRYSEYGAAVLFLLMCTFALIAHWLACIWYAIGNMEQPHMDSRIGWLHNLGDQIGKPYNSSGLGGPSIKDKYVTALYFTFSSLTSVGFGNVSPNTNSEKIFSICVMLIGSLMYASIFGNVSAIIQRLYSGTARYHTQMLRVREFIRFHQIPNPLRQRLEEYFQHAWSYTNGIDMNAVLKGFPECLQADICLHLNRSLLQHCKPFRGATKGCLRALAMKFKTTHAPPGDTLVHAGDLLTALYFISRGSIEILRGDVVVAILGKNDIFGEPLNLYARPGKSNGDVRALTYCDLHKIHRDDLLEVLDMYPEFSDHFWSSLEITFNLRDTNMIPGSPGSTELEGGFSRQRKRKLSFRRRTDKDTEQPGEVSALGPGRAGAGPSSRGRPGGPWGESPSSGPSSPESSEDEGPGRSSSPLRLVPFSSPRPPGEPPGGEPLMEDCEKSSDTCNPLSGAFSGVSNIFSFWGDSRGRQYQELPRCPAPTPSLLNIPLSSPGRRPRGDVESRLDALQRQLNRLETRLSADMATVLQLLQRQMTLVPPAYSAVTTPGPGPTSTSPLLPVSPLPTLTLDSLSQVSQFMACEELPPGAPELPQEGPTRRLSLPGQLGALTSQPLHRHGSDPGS
row,SMILES,"hERG current change (%, negative = inhibition) at 1uM [%]"
1,O=C(NCCc1ccccc1)c1cccs1,5.8
2,CC(=O)Nc1cccc(C(=O)OCC(=O)c2ccccc2Cl)c1,0.186
3,COc1cc(/C=N/NC(=O)Cc2ccccc2)ccc1Oc1ccc([N+](=O)[O-])cc1[N+](=O)[O-],7.76
4,CCC(C)(C(=O)NC1CCCCC1)N(C)C(=O)c1ccc2c(c1)OCO2 (centres unmarked),14.1
5,CCOc1ccccc1N1CCN(C(=O)c2cc(-c3cccnc3)nc3c(Cl)cccc23)CC1,13.4
6,COCc1nnc(NC(=O)c2ccc(S(=O)(=O)N(CC(C)C)CC(C)C)cc2)o1,7.35
7,O=C(CCC1CCCN(C(=O)c2ccoc2)C1)NCc1ccccc1F (centres unmarked),8.01
8,Cc1ccc(S(=O)(=O)N2CCC(C(=O)O)CC2)cc1,9.7
9,CCN(CC)c1c([N+](=O)[O-])c(=O)oc2ccccc12,11.2
10,O=C(CCCC(=O)n1cnc2ccccc21)n1cnc2ccccc21,9.47
11,Cc1nnc(SC(C)C(=O)Nc2ccc3ccccc3c2)n1C (centres unmarked),7.87
12,O=C(Oc1ccc(-c2nnco2)cc1)N1CCCCC1,12.3
13,O=C1N=C(N2CCCCC2)SC1=C1CCCCC1,4.8
14,CS(=O)(=O)N1CCc2cc(C(=O)Nc3ccc(COCC(F)(F)F)cc3)ccc21,10.4
15,Cc1csc(NC(=O)CSc2nnc(Cc3cccn3C)n2-c2ccc(F)cc2)n1,1.54
16,COc1ccc(CCNC(=O)C(=O)c2c(C)n(C)c3ccccc23)cc1OC,10.4
17,COc1cccc(/C=C/C(=O)c2ccc3c(c2)OCO3)c1OC,7.33
18,CCN(CC)S(=O)(=O)N1CCC(C(=O)NCCC2=CCCCC2)CC1,6.39
19,Cc1ccnc(NC(=O)CCC(=O)N(CC(=O)NCc2ccc(F)cc2)Cc2ccccc2)c1,0.229

row,SMILES,"hERG current change (%, negative = inhibition) at 1uM [%]"
1,O=C1C2C3C=CC(C3)C2C(=O)N1c1ccc(-c2nc3ccccc3o2)cc1 (centres unmarked),9.99
2,Cc1oc(C)c(C(=O)O)c1C(=O)O,16.8
3,CN(Cc1ccccc1)S(=O)(=O)c1ccc(NC(=O)c2ccccc2C(=O)O)cc1,-1.92
4,Cc1c(C(=O)N2CCCC2)nnn1-c1nonc1N,12.4
5,CCCNC(=O)NC(=O)COC(=O)c1oc2ccc(OCC)cc2c1C,2.89
6,O=[N+]([O-])c1ccc(/C=N/Nc2nc(-c3ccccc3)c3cc(Br)ccc3n2)o1,5.06
7,COc1ccccc1NC(=O)CN1C(=O)CC(C)S(=O)(=O)c2ccccc21 (centres unmarked),2.08
8,Cc1nc(Nc2ccccc2)[nH]c(=O)c1CCC(C)C,1.92
9,CC(=O)Nc1cccc(NC(=O)c2cccc(-c3ccc(O)cc3)c2)c1,7.74
10,O=C(Nc1cccc(C(F)(F)F)c1)c1cc(Br)cc2c1OCC2,7.93
11,O=C(NCc1cccs1)c1cccc(S(=O)(=O)N2CCCCC2)c1,2.32
12,CCCn1c(C)cc(=O)c2cc(NC(=O)c3ccccn3)ccc21,-5.24
13,CCCCOc1ccc(-c2nnn(CC(=O)NCCc3c[nH]c4ccccc34)n2)cc1,-0.104
14,O=C(C1CCN(S(=O)(=O)c2cccc3nsnc23)CC1)N1CCc2ccccc2C1,11.3
15,COC(=O)c1cccc(NC(=O)c2ccc3c(c2)C(=O)N(C(C)(C)C)C3=O)c1,17.2
16,CCOC(=O)c1ccc(NC(=O)c2ccc3c(c2)C(=O)N(CC2CCCO2)C3=O)cc1 (centres unmarked),5.17
17,CCCCN(CCCNC(=O)c1ccc(CS(=O)(=O)c2ccc(OC)cc2)o1)Cc1ccccc1,-17.1
18,N=c1c(C(=O)NCC2CCCO2)cc2c(=O)n3ccccc3nc2n1C1CCCC1 (centres unmarked),-72.2
19,COCCNC(=O)C(OC(=O)c1ccco1)c1ccccc1Cl (centres unmarked),11.8

row,SMILES,"hERG current change (%, negative = inhibition) at 1uM [%]"
1,Cc1nc(C(=O)N2CCCC(C(=O)c3cccc(OC(C)C)c3)C2)cs1 (centres unmarked),5.24
2,Cc1cc(C)nc(SCC(=O)c2ccc(C)c(C)c2)n1,10.1
3,CC(=O)N1C(=S)NC(=O)/C1=C1/C(=O)N(CC(=O)Nc2cccc(C)c2)c2ccccc21,14.7
4,CN1CCN(c2ccc(Nc3ccnc4cc(Cl)ccc34)cc2)CC1,9.22
5,O=c1c2ccccc2nc(/C=C/c2ccccc2)n1-c1ccc(O)cc1,10.6
6,Cc1ccsc1/C=N/NC(=O)c1cccnc1,12.5
7,Cc1nn(C(C)C(=O)NCCCN2CCCCC2C)c(=O)c2c1sc1ccccc12 (centres unmarked),10.2
8,Cc1c(-c2ncn[nH]2)sc(C#N)c1-c1ccccc1,8.5
9,O=C(CSc1nnc(COc2ccc(Cl)cc2Cl)o1)Nc1ccccn1,5.29
10,Cc1ccc(C=Nc2ccccc2C#N)s1,7.12
11,CCc1ccc(NC(=O)C2C3C=CC(C4CC34)C2C(=O)O)cc1 (centres unmarked),2
12,O=C(NCC1CCCO1)c1ccc(CNS(=O)(=O)c2ccc(F)c(Cl)c2)cc1 (centres unmarked),3.89
13,CC#CCCCC(=O)Nc1ccccc1C(=O)O,-0.409
14,Cc1csc(NS(=O)(=O)c2cccc([N+](=O)[O-])c2)n1,7.58
15,CCC1=C(OC(=O)N(CC)CC)N2C(=O)OC(=NCC(=O)OC)[C@]2(Cc2ccccc2)[C@H]2C1=CC[C@H]1C(=O)N(C)C(=O)[C@H]12,10.4
16,COCCN1C(=O)C(CC(=O)Nc2ccc(C(=O)O)cc2)SC1=Nc1ccccc1 (centres unmarked),10.8
17,O=C(NCCC1CCCC1)C1CCC(=O)N(CCCN2CCCC2=O)C1 (centres unmarked),23.5
18,O=C(O)C1(NS(=O)(=O)c2ccc(Cl)cc2)CCCCC1,1.41
